# Assay results published in PubChem BioAssay AID504332 (National Center for Advancing Translational Sciences (NCATS), 2011).
# Screen size: about 350,000 compounds; about 31,000 (8.9%) were called active. This list was built around the results that the source calls inconclusive (neither active nor inactive); the mix of calls is not that of the screen. Calls follow the shape of the dose curve; as a rule, active = well fitted inhibition curve with a large enough effect; inconclusive = small, poorly fitted or top-dose-only effect; inactive = no such curve, though single readings can be large or run the other way. A potency beside an inconclusive call is a rough fit, not a confirmed value.
# Target: Histone-lysine N-methyltransferase EHMT2 (Homo sapiens) (UniProt Q96KQ7)
# Test: qHTS Assay for Inhibitors of Histone Lysine Methyltransferase G9a; also: nearly all actives have a fitted effect of over 75% in size
# Conditions: G9a H3K9 monomethylation, AlphaScreen, 2 h; activity, negative = inhibition: at 59 µM (top of the series) unless noted
# How it was run: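 Signal arises when biotinylated H3K9 peptide, once monomethylated, bridges streptavidin donor and antibody-captured acceptor beads. Enzyme at 20 nM was preincubated 15 min with test compounds; peptide 500 nM and SAM 20 uM then reacted for 2 h.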
# % is scaled to controls: 0 for no effect and ±100 for the full control effect; potency is read from the fitted curve at half-maximal effect; tags tell the direction and shape of the fitted curve.
# Chain of UniProt Q96KQ7 (Q96KQ7 whole entry, looked up): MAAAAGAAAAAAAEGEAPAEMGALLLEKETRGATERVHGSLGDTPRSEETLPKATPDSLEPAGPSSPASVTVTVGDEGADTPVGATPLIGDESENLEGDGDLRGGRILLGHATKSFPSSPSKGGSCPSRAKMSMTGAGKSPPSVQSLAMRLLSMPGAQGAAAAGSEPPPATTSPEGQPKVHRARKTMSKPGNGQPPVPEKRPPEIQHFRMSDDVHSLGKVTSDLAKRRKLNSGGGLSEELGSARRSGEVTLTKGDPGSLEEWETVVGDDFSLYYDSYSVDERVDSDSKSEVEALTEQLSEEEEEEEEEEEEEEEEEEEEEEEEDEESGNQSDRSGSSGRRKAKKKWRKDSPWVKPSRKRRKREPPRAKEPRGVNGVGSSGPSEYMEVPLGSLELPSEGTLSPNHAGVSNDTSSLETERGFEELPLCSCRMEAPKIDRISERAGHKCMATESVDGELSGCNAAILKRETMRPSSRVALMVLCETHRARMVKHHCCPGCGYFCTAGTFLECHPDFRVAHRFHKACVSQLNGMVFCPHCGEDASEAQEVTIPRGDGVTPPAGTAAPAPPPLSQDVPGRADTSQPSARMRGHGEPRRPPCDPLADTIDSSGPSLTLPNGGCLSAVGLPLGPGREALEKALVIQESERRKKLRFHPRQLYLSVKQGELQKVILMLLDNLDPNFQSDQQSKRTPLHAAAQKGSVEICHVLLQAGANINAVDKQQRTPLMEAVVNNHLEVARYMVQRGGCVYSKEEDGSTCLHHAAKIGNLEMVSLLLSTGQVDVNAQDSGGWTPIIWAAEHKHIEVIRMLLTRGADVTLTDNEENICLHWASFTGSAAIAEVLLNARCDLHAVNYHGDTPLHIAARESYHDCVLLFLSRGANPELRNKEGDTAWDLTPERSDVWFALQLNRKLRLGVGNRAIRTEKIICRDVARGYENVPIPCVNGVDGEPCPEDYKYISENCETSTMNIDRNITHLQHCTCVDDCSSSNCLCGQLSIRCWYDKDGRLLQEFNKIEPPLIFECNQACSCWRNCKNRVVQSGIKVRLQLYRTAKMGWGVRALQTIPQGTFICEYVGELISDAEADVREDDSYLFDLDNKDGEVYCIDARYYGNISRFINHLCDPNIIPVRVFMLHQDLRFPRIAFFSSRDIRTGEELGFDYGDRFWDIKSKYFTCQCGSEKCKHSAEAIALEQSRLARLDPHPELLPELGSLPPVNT
SMILES,Potency,"activity, negative = inhibition"
COc1ccc(CCNC(=O)c2ccc(-c3ccc([N+](=O)[O-])cc3Cl)o2)cc1OC,"inconclusive: 28.2 µM [inhibitor, single point]",
CCN1C(=O)[C@@H]2[C@@H](c3ccc(-c4ccccc4)cc3)N3CCCC[C@@]3(C(=O)OC)[C@@H]2C1=O,,inactive: -6.56% [at 2.33 µM]
NC(=O)CSc1c[nH]c2ccccc12,"inconclusive: 22.4 µM [inhibitor, single point]",
COC(=O)N/N=C\c1c(C)[nH]n(-c2ccccc2)c1=O,active: 1.78 µM,
CC(=O)C1=C(O)C(=O)N(CCc2c[nH]c3ccccc23)C1c1cccc(O)c1 (stereo not drawn),,inconclusive: -53.2% [inhibitor]
Nc1nc2c(cnn2CCc2ccccc2)c2nc(-c3ccco3)nn12,"inconclusive: 17.8 µM [inhibitor, partial curve]",
O=C(O)CC(NCc1ccco1)C(=O)OCCc1ccccc1 (stereo not drawn),active: 31.6 µM,
CC(C)Cn1c(C(C)C)nc([N+](=O)[O-])c1Sc1ccc(Cl)cn1,"inconclusive: 25.1 µM [inhibitor, single point]",
Cc1c(NC(=O)OC(C)C)sc(=S)n1C,"inconclusive: 39.8 µM [inhibitor, single point]",
COC(=O)c1ccc(C23CC4(C2)[C@H](CN(Cc2ccc(-c5ccccc5)cc2)[C@@H]4c2ccccc2)C3c2ccc(Cl)nc2)cc1 (stereo partly drawn),"inconclusive: 8.91 µM [inhibitor, single point]",
Cc1ccc(Cn2ccnc2SCC(=O)Nc2ccc3c(c2)OCCO3)cc1,"inconclusive: 22.4 µM [inhibitor, single point]",
COC(=O)C(C)NC(=O)C(C)NC(=O)OCc1ccccc1 (stereo not drawn),"inconclusive: 39.8 µM [inhibitor, partial curve, poor fit]",
Cc1c(C(=O)N2CCOCC2)oc2ccccc12,,inconclusive: -70.5% [inhibitor] [at 12.7 µM]
CCN(CC)CCCNC(=O)C(=O)Nc1ccc2nc3n(c(=O)c2c1)CCCCC3,,inactive: -7.93%
O=C(Nc1ccc(Cl)c(Cl)c1)N(CCCN1CCOCC1)Cc1cccnc1,,inactive: 5.94% [at 102 µM]
Cc1cc(NS(=O)(=O)c2ccc(NC(=O)COc3ccccc3Cl)cc2)no1,,inconclusive: -54.1% [inhibitor] [at 12.7 µM]
CCC1S/C(=C(\C#N)C(=O)NCc2ccco2)N(c2ccc(Br)cc2)C1=O (stereo not drawn),"inconclusive: 1 µM [inhibitor, single point]",
N#CC1=C(N)C(C#N)(C#N)C(c2ccncc2)C2CN(C(=O)OCc3ccccc3)CC=C12 (stereo not drawn),active: 15.8 µM,
